# The list shows a part of the results.
# B1: PRKCE (Homo sapiens), Q02156 (protein)
# chain: MVVFNGLLKIKICEAVSLKPTAWSLRHAVGPRPQTFLLDPYIALNVDDSRIGQTATKQKTNSPAWHDEFVTDVCNGRKIELAVFHDAPIGYDDFVANCTIQFEELLQNGSRHFEDWIDLEPEGRVYVIIDLSGSSGEAPKDNEERVFRERMRPRKRQGAVRRRVHQVNGHKFMATYLRQPTYCSHCRDFIWGVIGKQGYQCQVCTCVVHKRCHELIITKCAGLKKQETPDQVGSQRFSVNMPHKFGIHNYKVPTFCDHCGSLLWGLLRQGLQCKVCKMNVHRRCETNVAPNCGVDARGIAKVLADLGVTPDKITNSGQRRKKLIAGAESPQPASGSSPSEEDRSKSAPTSPCDQEIKELENNIRKALSFDNRGEEHRAASSPDGQLMSPGENGEVRQGQAKRLGLDEFNFIKVLGKGSFGKVMLAELKGKDEVYAVKVLKKDVILQDDDVDCTMTEKRILALARKHPYLTQLYCCFQTKDRLFFVMEYVNGGDLMFQIQRSRKFDEPRSRFYAAEVTSALMFLHQHGVIYRDLKLDNILLDAEGHCKLADFGMCKEGILNGVTTTTFCGTPDYIAPEILQELEYGPSVDWWALGVLMYEMMAGQPPFEADNEDDLFESILHDDVLYPVWLSKEAVSILKAFMTKNPHKRLGCVASQNGEDAIKQHPFFKEIDWVLLEQKKIKPPFKPRIKTKRDVNNFDQDFTREEPVLTLVDEAIVKQINQEEFKGFSYFGEDLMP
# Assays:
# Assay in all cases: glycan array binding signal (z-score within array); higher = stronger binding
# Settings in all cases: glycan notation: IUPAC condensed, linker removed
# [1] = biological target: Man(a1-2)Man(a1-3)[Man(a1-2)Man(a1-6)]Man(a1-6)[Man(a1-2)Man(a1-2)Man(a1-3)]Man(b1-4)GlcNAc(b1-4)GlcNAc
# In short: (§1)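 Glycan array data were curated from 3228 arrays in the Consortium for Functional Glycomics database and kept only where the protein sequence was available. Glycan names were converted to IUPAC-condensed notation, and columns mapping to the same glycan were averaged. The binding signal is a within-array Z-score, averaged across arrays of the same protein sequence at different concentrations or buffers and across linkers. Negative Z-scores can be read as non-binding.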
# [2] = biological target: Man(a1-2)Man(a1-3)[Man(a1-6)]Man(a1-6)[Man(a1-2)Man(a1-3)]Man(b1-4)GlcNAc(b1-4)GlcNAc
# In short: as §1
# [3] = biological target: Man(a1-2)Man(a1-6)[Man(a1-3)]Man(a1-6)[Man(a1-2)Man(a1-2)Man(a1-3)]Man
# In short: as §1
# [4] = biological target: Man(a1-2)Man(a1-6)[Man(a1-3)]Man(a1-6)[Man(a1-2)Man(a1-2)Man(a1-3)]Man(b1-4)GlcNAc(b1-4)GlcNAc
# In short: as §1
# Man(a1-3)[Man(a1-6)]Man = biological target: Man(a1-3)[Man(a1-6)]Man
# In short: as §1
# [5] = biological target: Man(a1-3)[Man(a1-6)]Man(a1-6)[Man(a1-2)Man(a1-3)]Man(b1-4)GlcNAc(b1-4)GlcNAc
# In short: as §1
# [6] = biological target: Man(a1-3)[Man(a1-6)]Man(a1-6)[Man(a1-3)]Man
# In short: as §1
# [7] = biological target: Man(a1-3)[Man(a1-6)]Man(a1-6)[Man(a1-3)]Man(b1-4)GlcNAc(b1-4)GlcNAc
# In short: as §1
# [8] = biological target: Man(a1-3)[Man(a1-6)]Man(b1-4)GlcNAc(b1-4)GlcNAc
# In short: as §1
# [9] = biological target: Man(a1-3)[Man(a1-6)]Man(b1-4)GlcNAc(b1-4)[Fuc(a1-6)]GlcNAc
# In short: as §1
# Man(a1-6)Man = biological target: Man(a1-6)Man
# In short: as §1
# Man(b1-4)GlcNAc = biological target: Man(b1-4)GlcNAc
# In short: as §1
# Neu5Ac(a2-3)Gal = biological target: Neu5Ac(a2-3)Gal
# In short: as §1
# [10] = biological target: Neu5Ac(a2-3)Gal(b1-3)GalNAc
# In short: as §1
# [11] = biological target: Neu5Ac(a2-3)Gal(b1-3)GalNAc(b1-3)Gal(a1-4)Gal(b1-4)Glc
# In short: as §1
# [12] = biological target: Neu5Ac(a2-3)Gal(b1-3)GalNAc(b1-4)[Neu5Ac(a2-3)]Gal(b1-4)Glc
# In short: as §1
# [13] = biological target: Neu5Ac(a2-3)Gal(b1-3)GalNAc(b1-4)[Neu5Ac(a2-8)Neu5Ac(a2-3)]Gal(b1-4)Glc
# In short: as §1
# [14] = biological target: Neu5Ac(a2-3)Gal(b1-3)GalNAc6S
# In short: as §1
# [15] = biological target: Neu5Ac(a2-3)Gal(b1-3)GlcNAc
# In short: as §1
# [16] = biological target: Neu5Ac(a2-3)Gal(b1-3)GlcNAc(b1-2)Man(a1-3)[GlcNAc(b1-4)][Neu5Ac(a2-3)Gal(b1-3)GlcNAc(b1-2)Man(a1-6)]Man(b1-4)GlcNAc(b1-4)GlcNAc
# In short: as §1
# [17] = biological target: Neu5Ac(a2-3)Gal(b1-3)GlcNAc(b1-3)Gal(b1-3)GlcNAc
# In short: as §1
# [18] = biological target: Neu5Ac(a2-3)Gal(b1-3)GlcNAc(b1-3)Gal(b1-4)GlcNAc
# In short: as §1
# [19] = biological target: Neu5Ac(a2-3)Gal(b1-3)GlcNAc(b1-3)GalNAc
# In short: as §1
# [20] = biological target: Neu5Ac(a2-3)Gal(b1-3)GlcNAc(b1-6)GalNAc
# In short: as §1
# [21] = biological target: Neu5Ac(a2-3)Gal(b1-3)GlcNAc6S
# In short: as §1
# [22] = biological target: Neu5Ac(a2-3)Gal(b1-3)[Fuc(a1-4)]GlcNAc
# In short: as §1
# [23] = biological target: Neu5Ac(a2-3)Gal(b1-3)[Fuc(a1-4)]GlcNAc(b1-3)Gal(b1-3)[Fuc(a1-4)]GlcNAc
# In short: as §1
# [24] = biological target: Neu5Ac(a2-3)Gal(b1-3)[Fuc(a1-4)]GlcNAc(b1-3)Gal(b1-4)[Fuc(a1-3)]GlcNAc
# In short: as §1
# [25] = biological target: Neu5Ac(a2-3)Gal(b1-3)[Neu5Ac(a2-3)Gal(b1-4)]GlcNAc
# In short: as §1
# [26] = biological target: Neu5Ac(a2-3)Gal(b1-3)[Neu5Ac(a2-6)]GalNAc
# In short: as §1
binder,measurement,setting,value
B1,glycan array binding signal (z-score),[1],0.322
same,glycan array binding signal (z-score),[2],-0.026
same,glycan array binding signal (z-score),[3],-0.29
same,glycan array binding signal (z-score),[4],-0.361
same,glycan array binding signal (z-score),Man(a1-3)[Man(a1-6)]Man,-0.374
same,glycan array binding signal (z-score),[5],-0.333
same,glycan array binding signal (z-score),[6],-0.076
same,glycan array binding signal (z-score),[7],-0.385
same,glycan array binding signal (z-score),[8],-0.361
same,glycan array binding signal (z-score),[9],-0.239
same,glycan array binding signal (z-score),Man(a1-6)Man,-0.269
same,glycan array binding signal (z-score),Man(b1-4)GlcNAc,-0.416
same,glycan array binding signal (z-score),Neu5Ac(a2-3)Gal,-0.388
same,glycan array binding signal (z-score),[10],0.424
same,glycan array binding signal (z-score),[11],-0.113
same,glycan array binding signal (z-score),[12],-0.179
same,glycan array binding signal (z-score),[13],-0.213
same,glycan array binding signal (z-score),[14],-0.364
same,glycan array binding signal (z-score),[15],-0.306
same,glycan array binding signal (z-score),[16],-0.424
same,glycan array binding signal (z-score),[17],0.144
same,glycan array binding signal (z-score),[18],-0.349
same,glycan array binding signal (z-score),[19],1.98
same,glycan array binding signal (z-score),[20],0.17
same,glycan array binding signal (z-score),[21],0.48
same,glycan array binding signal (z-score),[22],-0.277
same,glycan array binding signal (z-score),[23],-0.349
same,glycan array binding signal (z-score),[24],-0.386
same,glycan array binding signal (z-score),[25],-0.429
same,glycan array binding signal (z-score),[26],0.973

# — the supplement of paper PMC8728848
